The results in this text go back to the supplement of paper PMC8728848.

This is one part of the list.

Holding throughout (experiment): glycan array binding signal (z-score within array); higher = stronger binding
What all share (conditions): glycan notation: IUPAC condensed, linker removed

In assay [1] the target is GlcNAc(b1-3)Gal(b1-4)GlcNAc(b1-6)[Gal(b1-3)]GalNAc. The method, boiled down:
(§1)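 Glycan array binding is given as a within-array Z-score, which can be read as non-binding when negative. The arrays, 3228 of them, came from the Consortium for Functional Glycomics database and were retained only where the protein sequence was available. Z-scores were averaged across arrays of the same protein sequence at different concentrations or buffers and across linkers.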

Assay [2] deals with GlcNAc(b1-3)Gal(b1-4)GlcNAc(b1-6)[GlcNAc(b1-3)Gal(b1-3)]GalNAc. The method, boiled down:
as §1

Assay [3] has as its target GlcNAc(b1-3)Gal(b1-4)GlcNAc(b1-6)[GlcNAc(b1-3)]Gal(b1-4)GlcNAc. The method, boiled down: as §1
The target of the next assay is GlcNAc(b1-3)GalNAc. Put shortly: as §1
The target in another assay is GlcNAc(b1-3)Man. Put shortly: as §1
Assay [4] deals with GlcNAc(b1-3)[GlcNAc(b1-4)][GlcNAc(b1-6)]GlcNAc. The method, boiled down: as §1
Assay [5] concerns the target GlcNAc(b1-3)[GlcNAc(b1-6)]Gal(b1-4)GlcNAc. Put shortly:
as §1

The target of assay [6] is GlcNAc(b1-3)[GlcNAc(b1-6)]GalNAc. Put shortly:
as §1

In assay [7] the target is GlcNAc(b1-4)Gal(b1-4)GlcNAc. Put shortly:
as §1

In the next assay the target is GlcNAc(b1-4)GlcNAc. Put shortly: as §1
Assay [8] addresses GlcNAc(b1-4)GlcNAc(b1-4)GlcNAc. Put shortly: as §1
For assay [9], the target named is GlcNAc(b1-4)GlcNAc(b1-4)GlcNAc(b1-4)GlcNAc(b1-4)GlcNAc. The method, boiled down: as §1
The target in assay [10] is GlcNAc(b1-4)GlcNAc(b1-4)GlcNAc(b1-4)GlcNAc(b1-4)GlcNAc(b1-4)GlcNAc. The method, boiled down:
as §1

Assay [11] addresses GlcNAc(b1-4)[GlcNAc(b1-6)]GalNAc. Put shortly: as §1
Assay [12] deals with GlcNAc(b1-6)Gal(b1-4)GlcNAc. The method, boiled down: as §1
For another assay, the target named is GlcNAc(b1-6)GalNAc. The method, boiled down:
as §1

The target of assay [13] is GlcNAc6S(b1-3)Gal(b1-4)GlcNAc. The method, boiled down: as §1
Another assay concerns the target Kdn(a2-3)Gal(b1-3)GalNAc. The method, boiled down: as §1
The target of another assay is Kdn(a2-3)Gal(b1-3)GlcNAc. Put shortly: as §1

B1: Cohesin-mDCIR (Macaca mulatta) (protein)
chain: GLDDLDAVRIKVDTVNAKPGDTVRIPVRFSGIPSKGIANCDFVYSYDPNVLEIIEIEPGDIIVDPNPDKSFDTAVYPDRKIIVFLFAEDSGTGAYAITKDGVFATIVAKVKEGAPNGLSVIKFVEVGGFANNDLVEQKTQFFDGGVNVGDTTEPATPTTPVTTPTTTDDLDAASFQKYSQLLEKMTTKDLVHTTLECVKKNMTTEETAWSCCPKNWKPFSSNCYFISTESASWQKSEKDCARMEAHLLVINTREEQDFIFQNLQEESAYFVGLSDPEGQRHWQWVDRTPYNESSTFWHPHEPSDPDERCVVLNFRKTPKRWGWNDVHCIVHQRSVCEMMKIHLHHHHHH
In the case of B1, the “glycan array binding signal (z-score)” value in assay [1] is -0.228; in assay [2] it was -0.421; in assay [3], -0.317; with GlcNAc(b1-3)GalNAc it was -0.311; with GlcNAc(b1-3)Man, -0.298; in assay [4], -0.38. In addition, the “glycan array binding signal (z-score)” value in assay [5] is -0.303; in [6], -0.253; in [7] it was -0.265; in the assay with GlcNAc(b1-4)GlcNAc, -0.363; in assay [8], -0.437; in [9] it was -0.295. Moreover, the “glycan array binding signal (z-score)” value is -0.361 in assay [10]; -0.247 in assay [11]; -0.393 in assay [12]; 1.02 in the assay with GlcNAc(b1-6)GalNAc; -0.133 in assay [13]; -0.439 with Kdn(a2-3)Gal(b1-3)GalNAc. Besides, the “glycan array binding signal (z-score)” value with Kdn(a2-3)Gal(b1-3)GlcNAc was -0.407.
